# Counter-ions that a name gives are not always drawn. The list shows a part of the results. Most values come without repeats; read them as rough.
# Tested on: MDA-468
# Assay: cell viability relative to vehicle (% of vehicle); basal-like triple-negative breast cancer lines; higher = less cytotoxic
# Conditions: 10 µM; 72 h
# 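Further: stably firefly luciferase-GFP labeled cells in 96-well plates, viability read as luciferase photon flux after d-luciferin addition, treated wells normalized to vehicle wells, single-dose high-throughput screen.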
row,Structure (SMILES),cell viability
1,CN(C)CCC=C1c2ccccc2Sc2ccc(Cl)cc21 [Chlorprothixene],112
2,Cc1ccccc1C(OCCN(C)C)c1ccccc1.O=C(O)CC(O)(CC(=O)O)C(=O)O (stereo not drawn) [Orphenadrine Citrate],102
3,CS(=O)(=O)c1ccc(C(=O)Nc2ccc(Cl)c(-c3ccccn3)c2)c(Cl)c1 [GDC-0449 (Vismodegib)],86.6
4,CCN(CC)CCOC(=O)c1ccc(N)cc1 [Procaine],127
5,CS(=O)(=O)O.N#CC1(c2ccc(NC(=O)c3cccnc3NCc3ccncc3)cc2)CCCC1 [Apatinib],125
6,OCC1OC(Oc2ccc(O)cc2)C(O)C(O)C1O (stereo not drawn) [Arbutin],114
7,O=C1NC(=O)[C@@H](c2c[nH]c3ccccc23)[C@H]1c1cn2c3c(cccc13)CCC2 [Tivantinib (ARQ 197)],48
8,OCC1OC(c2ccc(Cl)c(Cc3ccc(OC4CCOC4)cc3)c2)C(O)C(O)C1O (stereo not drawn),108
9,Cl.O=C1Cc2cc(CCN3CCN(c4nsc5ccccc45)CC3)c(Cl)cc2N1 [Ziprasidone HCl],96.8
10,COc1cc(NC(C)CCCN)c2ncccc2c1.O=P(O)(O)O.O=P(O)(O)O (stereo not drawn) [Primaquine Diphosphate],78.8
11,Nc1cc(C(Cl)=C(Cl)Cl)c(S(N)(=O)=O)cc1S(N)(=O)=O [Clorsulon],110
12,COC(=O)C1=C(C)NC(C)=C(C(=O)OC)C1c1ccccc1[N+](=O)[O-] [Nifedipine],96.1
13,O=NN(CCCl)C(=O)NCCCl [Carmustine],81.6
14,Cn1c(=O)c2[nH]cnc2n(C)c1=O [Theophylline],101
15,CCC1=CC2CN(C1)Cc1c([nH]c3ccccc13)C(C(=O)OC)(c1cc3c(cc1OC)N(C)C1C(O)(C(=O)OC)C(OC(C)=O)C4(CC)C=CCN5CCC31C54)C2 (stereo not drawn) [Vinorelbine],110
16,CCCNC1CCc2nc(N)sc2C1 (stereo not drawn) [Pramipexole],108
17,CCCCC(=O)OC1CCC2C3CCc4cc(O)ccc4C3CCC12C (stereo not drawn) [Estradiol valerate],93.7

row,Structure (SMILES),cell viability
1,Nc1nc(N)c2nc(-c3ccccc3)c(N)nc2n1 [Triamterene],99.3
2,Cc1ccsc1C(=CCCN1CCC[C@@H](C(=O)O)C1)c1sccc1C [Tiagabine hydrochloride],118
3,Cc1ccc(S(=O)(=O)NC(=O)NN2CC3CCCC3C2)cc1 (stereo not drawn) [Gliclazide],81.9
4,O=C(O)COCCN1CCN(C(c2ccccc2)c2ccc(Cl)cc2)CC1 (stereo not drawn) [Cetirizine],92.7
5,CC1(C)SC2C(NC(=O)C(NC(=O)N3CCN(S(C)(=O)=O)C3=O)c3ccccc3)C(=O)N2C1C(=O)O.[Na] (stereo not drawn) [Mezlocillin Sodium],103
6,Nc1nc(=O)c2ncn(CCC(CO)CO)c2[nH]1 [Penciclovir],119
7,"O=C(CCCCCCC(=O)Nc1ccccc1)NO [Vorinostat (SAHA, MK0683)]",87.6
8,CC1C=CC=CC=CC=CC=CC=CC=CC(OC2OC(C)C(O)C(N)C2O)CC2OC(O)(CC(O)CC(O)C(O)CCC(O)CC(O)CC(=O)OC(C)C(C)C1O)CC(O)C2C(=O)O (stereo not drawn) [Amphotericin B],115
9,CC(C)OC(=O)OCOP(=O)(COC(C)Cn1cnc2c(N)ncnc21)OCOC(=O)OC(C)C.O=C(O)C=CC(=O)O (stereo not drawn) [Tenofovir Disoproxil Fumarate],86.6
10,O=C(O)CCNC(=O)c1ccccc1 [Betamipron],110
11,NC(N)=NS(=O)(=O)c1ccc(N)cc1 [Sulfaguanidine],93.5
12,CC(C)(C)NC(=O)C1CCC2C3CCC4NC(=O)C=CC4(C)C3CCC12C (stereo not drawn) [Finasteride],93.5
13,COc1ccc(C=Cc2cc(OC)c(OC)c(OC)c2)cc1OP(=O)([O-])[O-].[Na+].[Na+] [Fosbretabulin (Combretastatin A4 Phosphate (CA4P)) Disodium],83.3
14,CCCN1CCCCC1C(=O)Nc1c(C)cccc1C.Cl (stereo not drawn) [Ropivacaine HCl],105
15,CS(=O)(=O)OCCCCOS(C)(=O)=O [Busulfan],99.6
16,CC(O)C1C(=O)N2C(C(=O)OCOC(=O)C(C)(C)C)=C(SC3CN(C4=NCCS4)C3)C(C)C12 (stereo not drawn) [Tebipenempivoxil],118
